# Data reported in the RNAGym collection of RNA variant scans (doi:10.7554/elife.90254).
# The source gives no read counts; variants with many changes may rest on few reads.
# B1: OR4K15 (parent)
# chain: GUUAACGGUCAUAGGCCAUGGAAACUAGGAGCACCAUUUCGCUGCCAGUGAAGAAAUGAACAAAGAAAAUCUGGGCCAGGCAGGCAUCAAAAGAAAUAGUCUUGCGCUCAACCAGAAAGUCUGUAAUCAUUUUAAGGGUA
# Variants of: B1
# Assay: self-cleavage, relative activity (ratio to wild type); higher = more cleavage; in vitro, sequencing; the parent is a self-cleaving ribozyme
row,Variant,self-cleavage
1,GUUAACGGUCAUAGGCCUUGGGAACUAGGAGCACCAUUUCGCUGCCAGUGAAGAAAUGAACAAAGAAAAUCUGGGCCAGGCAGGCAUCAAAAGAAAUAGCCUUGCGCUCAACCAGAAAGUCUGUAAUCAUUUUAAGGGUA [A18U A22G U100C],1.57
2,GUUAACGGUCAUAGGCCUUGGAAACUAGGAGCACCAUUUCGCUGCCAGUGAGGAAAUGAACAAAGAAAAUCUGGGCCAGGCAGGCAUCGAAAGAAAUAGUCCUGCGCUCAACCGGAAAGUCUGUAAUCAUUUUAAGGGUA [A18U A52G A89G U102C A114G],1.66
3,GUUAACGGUCAUAGGCCUUGGAAACUAGGGGCACCAUUUCGCUGCCAGUGAAGAAAUGAACAAAGAAAAUCUGGGCCAGGCAGGCAUCAAAAGAAAUAGUCUUGCGCUCAACCAGAAAGUCUGUAGUCAUUUUAAGGGUA [A18U A30G A126G],1.82
4,GUUAACGGUCAUAGGCCUUGGAGACUAGGAGCACCAUUUCGCUGCCAGUGAAGAAAUGAACAAAGAAAAUCUGGGCCAGGCAGGCAUCAAAAGAAAUAGUCUUGCGCUCGACCAGAAAGUCUGUAAUUAUAUUAAGGGUA [A18U A23G A110G C128U U131A],0.25
5,GUUAACGGUCAUAGGCCUUGGGAGCUAGGAGCACCAUUUCGCUGCCAGUGAAGAAGUGAACAAAGAAAAUCUGGGCCAGGCAGGCAUCAAAAGAAAUAGUCUUGCGCUUAACCAGAAAGUCUGUAAUCAUUUUAAGGGUA [A18U A22G A24G A56G C109U],0.55
6,GUUAACGGUCAUAGGCCUUGGAAACUAGGAGCACCAUUUCGCUGCCAGUGAUGAAAUGAACAAAGGAAAUCUGGGCCAGGCAGGCAUCAAAAGAAAUAGUCUUGCGCUCAACCAGAAAGUCUGUAAGCAUUUUAAGGGUA [A18U A52U A66G U127G],0.5
7,GUUAACGGUCAUAGGCCUUGGAGACUAGGAGCACCAUUUCGCCGCCAGUGAAGAAAUGAACAAAGAAAAUCUGGGCCAGGCAGGCAUCAAAAGAAAUAGUCUUGCGCUCAACCAGAAAGUCUGUAAUCAUUUUAAGGGCA [A18U A23G U43C U139C],1.16
8,GUUAACGGUCAUAGGCCUUGGAAACUAGGAGCACCAUUUCGCUGCCAGUGAAGAAAUGGACGAAGAAAAUCUGGGCCAGGCAGGCAUCAAAAGAAAUAGUCCUGCGCUCAACCAGAAAGUCUGUAAUCAUUUUAAGGGUA [A18U A59G A62G U102C],2.06
9,GUUAACGGUCAUAGGCCUUGGGAACUAGGAGCACCAUUACGCUGCCAGUGAAGAAAUGAACAAAGAAAAUCUGGGCCAGGCAGGCAUCAGAAGAAAUAGUCUUGCGCUCAACCAGAAAGUCUGUAAUCAUUUUAAGGGUA [A18U A22G U39A A90G],0.98
10,GUUAACGGUCAUAGGCCUUGGAAACUAGGAGCACCAUUUCGCUGCCAGUGAAGGUAUGAACAAAGAAAAUCUGGGCCAGGCAGGCAUCAAAAGAAAUAGUCUUGCGCUCAACCAGAAAGUCCGUAAUCAUUUUAAGGGUA [A18U A54G A55U U122C],0.94
11,GUUAACGGUCAUAGGCCUUGGAGACUAGGAGCACCAUUUCGCUGCCAGUGAAGAAAUGAACAAAGAAAAUCUGGGCCAGGCAGGCACCAAAAGAAAUAGUCUUGCGCUCAACCAGAAAGUCUGUAAUCAUUUUAAGGGUA [A18U A23G U87C],0.93
12,GUUAACGGUCAUAGGCCUUGGGAACUAGGAGCACCAUUUCGCUGCCAGUGAAGAAAUGAACAAAGAAAAUCUGGGCCAGGCAGGCAUCAAAAGAAAUAGUCUUGCGCUCAACCAGAAAGUCUGUAAUCGUUUUAAGGGUA [A18U A22G A129G],0.57
13,GUUAACGGUCAUAGGCCUUGGAAACUAGGAGCACCAUUUCGCUGCCAGUGAAGAGAUGAACAAAGAAAAUUUGGGCCAGGCAGGCAUCAAAAGAAAUAGUCUCGCGCUCAACCAGAAAGUCUGUAAUCAUUUUAAGGGUA [A18U A55G C71U U103C],0.08
14,GUUAACGGUCAUAGGCCUUGGAGACUAGGAGCACCACUUCGCUGCCAGUGAAGAAAUGAACAAAGAAAAUCUGGGCCAGGCAGGCAUCAAAAGAAAUAGUCUUGCGCUCAACCAGAAAGUCUGUAAUCAUUUUAAGGGUA [A18U A23G U37C],1.34
15,GUUAACGGUCAUAGGCCUUGGAAGCUUGGAGCACCAUUUCGCUGCCAGUGAAGAAAUGAACAAAGAAAAUCUGGGCCAGGCAGGCAUCAAAAGAAAUAGUCUUGCGCUCAACCAGAGAGUCCGUAAUCAUUUUAAGGGUA [A18U A24G A27U A117G U122C],1.35
16,GUUAACGGUCAUAGGCCGUGGAAACUAGGAGCACCAUUUCGCUGCCAGUGAAGAAAUGAACAAAGAAAAUCUGGGCCAGGCAGGCAUCAAAAGAAAUAGUCUUGCGCUCAACCAGAAAGUCUGAAAUCACUUUAAGGGUA [A18G U124A U130C],0.16
17,GUUAACGGUCAUAGGCCUUGGAGACUAGGAGCACCAUUUCGCUGCCAGUGAAGAAAUGAACAAAGAAAAUCUGGGCCAGGCAGGCAUCAAAAGAAGUAGUCCUGCGCUCAACCAGAAAGUCUGUAAUCAUUUUAAGGGUA [A18U A23G A96G U102C],1.13
18,GUUAACGGUCAUAGGCCUUGGAAGCUAGGAGCACCAUUUCGCUGCCAGUGAAGAAAUGAACAAAGAAAAUCUGGGCCAGGCAGGCAUCAAAAGAAAUAGUCUCGCGCUCAACCAGAAAGUCUGUAAUCAUUUUAAGGGUA [A18U A24G U103C],1.16
19,GUUAACGGUCAUAGGCCUUGGAAACUGGGAGCACCAUUCCGCUGCCAGUGAAGAAAUGAACAAAGAAAAUCCGGGCCAGGCAGGCAUCAAAAGAAAUAGUCUUGCGCUCAACCAGAAAGUCUGUAAUCAUUUUAAGGGUA [A18U A27G U39C U72C],0.38
20,GUUAACGGUCAUAGGCCUUGGAAACUAGGAGCACCAUUUCGCUGCCAGUGUAGAAAUGAACAAAGAAAAUCUGGGCCAGGCAGGCAUCAAAAGAAAUAGUCUUGCGCUCAACCCGAAAGUCUGUAAUCAUUUUAAGGGUA [A18U A51U A114C],0.04
21,GUUAACGGUCAUAGGCCUUGGAAACUAGGAGCACCAUUUCGCUGCCAGUGAAGAAAUGUACAAAGAAAAUCUGGGCCAGGCAGGCAUCAAAAGAAAUAGUCUUGCGCUCAGCCAGAAAGUCUGUAAUCAUUUUAAGGGUA [A18U A59U A111G],0.08

row,Variant,self-cleavage
1,GUUAACGGUCAUAGGCCUUGGGAACUAGGAGCACCAUUUCGCUGCCAGUGAAGAAAUGAACAAAGAAAAUCUGGGCCAGGCAGGCAUCAAAAGAAGUAGUCUUGCGCUCAACCAGAAAGUCUGUAAUCAUUUUAAGGGUA [A18U A22G A96G],1.31
2,GUUAACGGUCAUAGGCCUUGGAAACUAGGAGCACCAUUUCGCUGCCAGUGAAGAGAUGAACAAAGAAAAUCUGGGCCAGGCAGGCAUCAAAAGAAAUAGUCUUGCGCUCAACCAGAAAGUCUGUUAUCAUUUUAAGGGUA [A18U A55G A125U],1.57
3,GUUAACGGUCAUAGGCCUUGGAAACUAGGAGCACCAUUUCGCUGCCGGUGAAGAAAUGAACAAAGAAAAUCUGGGCCAGGCAGGCAUCAAAAGAAAUAGUCUUGCGCCCAACCAGAAAGUCUGUAAUCAUUUUAAGGGUA [A18U A47G U108C],0.01
4,GUUAACGGUCAUAGGCCUUGGAAACUAGGAGCACCAUUUCGCUGCCAGUGGAGAAAUGAACAAAGAAAAUCUGGGCCAGGCAGGCUUCAAAAGAAAUAGUCUUGCGCUCAACCAGAAAGUCUGUAAUCAUUUUAAGGGUA [A18U A51G A86U],2.19
5,GUUAACGGUCAUAGGCCUUGGAAACUAGGAGCACCAUUUCGCUGCCAGUGGAGAAAUGAACAAAGAAAAUCUGGGCCAGGCGGGCAUCAAAAGAAAUAGUCUUGCGCUCAACCAGAAAGUCUGUAAUCAUUUUAAGGGUA [A18U A51G A82G],0.93
6,GUUAACGGUCAUAGGCCUUGGAAACUAGGAGCACCAUUUCGCUGCCUGUGAAGAAAUGAACAAAGAAAAUCUGGGCCAGGUAGGCAUCAAAAGAAAUAGUCUUGCGCUCAACCAGAAAGUCUGUAAUCAUUUUAAGGGUA [A18U A47U C81U],0.14
7,GUUAACGGUCAUAGGCCUUGGAAACUAGGAGCACCAUUUCGCUGCCAGUGAAGAAAUGUACUAAGAAAAUCUGGGCCAGGCAGGCAUCAAAAGAAAUAGUCUUGCGCUCAACCAGAAAGUCUGUAAUCAUUUUGAGGGUA [A18U A59U A62U A134G],1.35
8,GUUAACGGUCAUAGGCCUUGGAGUCUAGGAGCACCAUUUCGCUGCCAGUGAAGAAAUGAACAAAGAAAAUCUGGGCCAGGCAGGCAUCAAAAGAAAUAGUCUUGCGCUCAACCAGAAAGUCUGUAAUCAUUUUAAGGGUA [A18U A23G A24U],1.02
9,GUUAACGGUCAUAGGCCUUGGAAACUAGGAGCACCAUUUCGCUGCCGGUGAAGAAGUGGACAAAGAAAAUCUGGGCCAGGCAGGCAUCAAAAGAAAUAGUCUUGCGCUCAACCAGAAAGUCUGUAAUCAUUUUAAGGGUA [A18U A47G A56G A59G],1.32
10,GUUAACGGUCAUAGGCCUUGGAAACUAGGAGCACCAUUUCGCUGCCAGUGUAGAAAUGAACAAAGAGAAUCUGGGCCAGGCAGGCAUCAAAAGAAAUAGUCUUGCGCUCAACCAGAAAGUCUGUAAUCAUUUUAAGGGUA [A18U A51U A67G],1.57
11,GUUAACGGUCAUAGGCCUUGGAAACUAGGAGCGCCAUUUCGCUGCCAGUGAAGAAAUGAACAAAGAAAAUCUGGGCCAGGCAGGCAUCAAGAGAAAUAGUCUUGCGCUCAACCAGAAAGUCUGCAAUCAUUUUAAGGGUA [A18U A33G A91G U124C],0.29
12,GUUAACGGUCAUAGGCCUUGGAAACUAGGAGCACCAUUUCGCUGCCAGUGAUGAAAUGAGCAAAGAAGAUCUGGGCCAGGCAGGCAUCAGAAGAAAUAAUCUUGCGCUCAACCAGGAAGUCUGUAAUCAUUUUAAGGGUA [A18U A52U A60G A68G A90G G99A A116G],0.02
13,GUUAACGGUCAUAGGCCUUGGAACCUAGGAGCACCAUUUCGCUGCCAGUGAAGAAAUGAACAAAGAAAAUCUGGGCCAGGCAGGCAUCAAAAGAAAUAGUCUUGCGCUCAACCAGAGAGUCUGUAAUCAUUUUAAGGGUA [A18U A24C A117G],2.12
14,GUUAACGGUCAUAGGCCUUGGAAACUAGGAGCACCAUUUCGCUGCCAGUGAAGGAAUGAGCAAAGAAAAUCUGGGCCAGGCAGGCAUCAAAAGAAAUAGUCUUGCGCUCAACCAGAAAGUCUGUAAUCAUUUUAAGGGUA [A18U A54G A60G],1.03
15,GUUAACGGUCAUAGGCCGUGGAAACUAGGAGCACCAUUUCGCUGCCAGUGAAGAAAUGAACAAAGAAAAUCUGGGCCAGGCAGGCACCAAAAGAAAUAGUCUUGCGCUCAACUAGAAAGUCUGUGAUCAUUUUAAGGGUA [A18G U87C C113U A125G],0.01
16,GUUAACGGUCAUAGGCCGUGGAAACUAGGAGCACCAUUUCGCUGCCAGUGAAGAAAUGAACAAAGAAAAUCUGGGCCAGGCAGGCAUCAAAAGAAAUAGUCUUGCGCUCAACCAGAAAGCCUGUAACCAUUUUAAGGGUA [A18G U120C U127C],0.32
17,GUUAACGGUCAUAGGCCUUGGAAACUAGGAGCACCAUUUCGCUGCCGGUGAAGAAAUGAACAAAGAAAAUCUGGGCCAGGCAGGCAUCAAAAGAAACAGUCUUGCGCCCAACCAGAAAGUCUGUAAUCAUUUUAAGGGUA [A18U A47G U97C U108C],0.02
18,GUUAACGGUCAUAGGCCUUGGAUACUGGGAGCACCAUCCCGCUGCCAGUGUAGAAAUGAACAAAGAAAAUCUGGGCCAGGCAGGCAUCAAAAGAAAUAGUCUUGCGCUCAACCAGAAAGUCUGUAACCAUUUUAAGGGUA [A18U A23U A27G U38C U39C A51U U127C],1.04
19,GUUAACGGUCAUAGGCCUUGGAGACUAGGAGCACCAUUUCGCUGCCAGUGAAGAAAUGAACAAAGAAAAUCUGGGCCAGGCAGGCAUCAAAAGAGAUAGUCUUGCGCUCAACCAGAAAGUCUGUAAUCAUUUUAAGGGUA [A18U A23G A95G],1.34
20,GUUAACGGUCAUAGGCCUUGGUAACUAGGAGCACCAUUUCGCUGCCAGUGAAGAAAUGAACAAAGAAAUUCUGGGCCAGGCAGGCAUCAAAAGAAAUAGUCUUGCGCUCAACCAGAAAGUCUGUAAUCAUUUUAAGGGUA [A18U A22U A69U],1.69
